# From the supplement of paper PMC8728848
# This is one part of the list.
# How the values were obtained:
# Test in all cases: glycan array binding signal (z-score within array); higher = stronger binding
# Conditions in all cases: glycan notation: IUPAC condensed, linker removed
# [1] = molecular target: Neu5Ac(a2-6)Gal(b1-4)GlcNAc(b1-3)Gal(b1-4)GlcNAc(b1-3)GalNAc
# Summary of the method: (§1)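 Glycan array data came from 3228 arrays in the Consortium for Functional Glycomics database, and only arrays with an available protein sequence were kept. Glycan names were put into IUPAC-condensed notation, and columns mapping to the same glycan were averaged. The binding signal is a within-array Z-score, averaged across arrays of one protein sequence run at different concentrations or buffers and across linkers. A negative Z-score can be read as non-binding.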
# [2] = molecular target: Neu5Ac(a2-6)Gal(b1-4)GlcNAc(b1-3)Gal(b1-4)GlcNAc(b1-3)[Neu5Ac(a2-6)Gal(b1-4)GlcNAc(b1-3)Gal(b1-4)GlcNAc(b1-6)]GalNAc
# Summary of the method: as §1
# [3] = molecular target: Neu5Ac(a2-6)Gal(b1-4)GlcNAc(b1-3)Gal(b1-4)GlcNAc(b1-6)[Gal(b1-3)]GalNAc
# Summary of the method: as §1
# [4] = molecular target: Neu5Ac(a2-6)Gal(b1-4)GlcNAc(b1-3)Gal(b1-4)[Fuc(a1-3)]GlcNAc(b1-3)Gal(b1-4)[Fuc(a1-3)]GlcNAc
# Summary of the method: as §1
# [5] = molecular target: Neu5Ac(a2-6)Gal(b1-4)GlcNAc(b1-3)GalNAc
# Summary of the method: as §1
# [6] = molecular target: Neu5Ac(a2-6)Gal(b1-4)GlcNAc(b1-3)[Neu5Ac(a2-6)Gal(b1-4)GlcNAc(b1-6)]GalNAc
# Summary of the method: as §1
# [7] = molecular target: Neu5Ac(a2-6)Gal(b1-4)GlcNAc(b1-6)GalNAc
# Summary of the method: as §1
# [8] = molecular target: Neu5Ac(a2-6)Gal(b1-4)GlcNAc(b1-6)[Gal(b1-3)GlcNAc(b1-3)]Gal(b1-4)Glc
# Summary of the method: as §1
# [9] = molecular target: Neu5Ac(a2-6)Gal(b1-4)GlcNAc(b1-6)[Gal(b1-3)]GalNAc
# Summary of the method: as §1
# [10] = molecular target: Neu5Ac(a2-6)Gal(b1-4)GlcNAc6S
# Summary of the method: as §1
# Neu5Ac(a2-6)GalNAc = molecular target: Neu5Ac(a2-6)GalNAc
# Summary of the method: as §1
# [11] = molecular target: Neu5Ac(a2-6)GalNAc(b1-4)GlcNAc
# Summary of the method: as §1
# [12] = molecular target: Neu5Ac(a2-6)GalNAc(b1-4)GlcNAc6S
# Summary of the method: as §1
# [13] = molecular target: Neu5Ac(a2-6)GlcNAc(b1-4)GlcNAc
# Summary of the method: as §1
# [14] = molecular target: Neu5Ac(a2-6)GlcNAc(b1-4)GlcNAc(b1-4)GlcNAc
# Summary of the method: as §1
# Neu5Ac(a2-8)Neu5Ac = molecular target: Neu5Ac(a2-8)Neu5Ac
# Summary of the method: as §1
# [15] = molecular target: Neu5Ac(a2-8)Neu5Ac(a2-3)Gal(b1-3)GalNAc(b1-4)[Neu5Ac(a2-3)]Gal(b1-4)Glc
# Summary of the method: as §1
# [16] = molecular target: Neu5Ac(a2-8)Neu5Ac(a2-3)Gal(b1-3)GalNAc(b1-4)[Neu5Ac(a2-8)Neu5Ac(a2-3)]Gal(b1-4)Glc
# Summary of the method: as §1
# [17] = molecular target: Neu5Ac(a2-8)Neu5Ac(a2-3)Gal(b1-4)Glc
# Summary of the method: as §1
# [18] = molecular target: Neu5Ac(a2-8)Neu5Ac(a2-3)Gal(b1-4)GlcNAc
# Summary of the method: as §1
# [19] = molecular target: Neu5Ac(a2-8)Neu5Ac(a2-3)[Gal(b1-3)GalNAc(b1-4)]Gal(b1-4)Glc
# Summary of the method: as §1
# [20] = molecular target: Neu5Ac(a2-8)Neu5Ac(a2-3)[GalNAc(b1-4)]Gal(b1-4)Glc
# Summary of the method: as §1
# [21] = molecular target: Neu5Ac(a2-8)Neu5Ac(a2-8)Neu5Ac
# Summary of the method: as §1
# [22] = molecular target: Neu5Ac(a2-8)Neu5Ac(a2-8)Neu5Ac(a2-3)Gal(b1-4)Glc
# Summary of the method: as §1
# [23] = molecular target: Neu5Ac(a2-8)Neu5Ac(a2-8)Neu5Ac(a2-3)[Gal(b1-3)GalNAc(b1-4)]Gal(b1-4)Glc
# Summary of the method: as §1
# [24] = molecular target: Neu5Ac(a2-8)Neu5Ac(a2-8)Neu5Ac(a2-3)[GalNAc(b1-4)]Gal(b1-4)Glc
# Summary of the method: as §1
# [25] = molecular target: Neu5Ac(a2-8)Neu5Ac(a2-8)Neu5Ac(a2-8)Neu5Ac(a2-3)[GalNAc(b1-4)]Gal(b1-4)Glc
# Summary of the method: as §1
# [26] = molecular target: Neu5Ac(a2-8)Neu5Gc(a2-3)Gal(b1-4)GlcNAc
# Summary of the method: as §1
# [27] = molecular target: Neu5Ac(b2-6)Gal(b1-4)GlcNAc
# Summary of the method: as §1
# Neu5Ac(b2-6)GalNAc = molecular target: Neu5Ac(b2-6)GalNAc
# Summary of the method: as §1
# [28] = molecular target: Neu5Ac9Ac(a2-3)Gal(b1-3)GlcNAc
# Summary of the method: as §1
# [29] = molecular target: Neu5Ac9Ac(a2-3)Gal(b1-4)GlcNAc
# Summary of the method: as §1
# [30] = molecular target: Neu5Ac9Ac(a2-6)Gal(b1-4)GlcNAc
# Summary of the method: as §1
# [31] = molecular target: Neu5Gc(a2-3)Gal(b1-3)GlcNAc
# Summary of the method: as §1
# [32] = molecular target: Neu5Gc(a2-3)Gal(b1-3)[Fuc(a1-4)]GlcNAc
# Summary of the method: as §1
# Neu5Gc(a2-3)Gal(b1-4)Glc = molecular target: Neu5Gc(a2-3)Gal(b1-4)Glc
# Summary of the method: as §1
# [33] = molecular target: Neu5Gc(a2-3)Gal(b1-4)GlcNAc
# Summary of the method: as §1
# [34] = molecular target: Neu5Gc(a2-3)Gal(b1-4)GlcNAc(b1-3)Gal(b1-4)GlcNAc(b1-2)Man(a1-3)[Neu5Gc(a2-3)Gal(b1-4)GlcNAc(b1-3)Gal(b1-4)GlcNAc(b1-2)Man(a1-6)]Man(b1-4)GlcNAc(b1-4)GlcNAc
# Summary of the method: as §1
# [35] = molecular target: Neu5Gc(a2-3)Gal(b1-4)[Fuc(a1-3)]GlcNAc
# Summary of the method: as §1
# [36] = molecular target: Neu5Gc(a2-6)Gal(b1-4)GlcNAc
# Summary of the method: as §1
# Neu5Gc(a2-6)GalNAc = molecular target: Neu5Gc(a2-6)GalNAc
# Summary of the method: as §1
# [37] = molecular target: Neu5Gc(a2-8)Neu5Ac(a2-3)Gal(b1-4)GlcNAc
# Summary of the method: as §1
# [38] = molecular target: Neu5Gc(a2-8)Neu5Gc(a2-3)Gal(b1-4)GlcNAc
# Summary of the method: as §1
# [39] = molecular target: Neu5Gc(a2-8)Neu5Gc(a2-3)Gal(b1-4)GlcNAc(b1-3)Gal(b1-4)GlcNAc
# Summary of the method: as §1
# [40] = molecular target: Neu5Gc(a2-8)Neu5Gc(a2-6)Gal(b1-4)GlcNAc
# Summary of the method: as §1
# [41] = molecular target: Neu5Gc(b2-6)Gal(b1-4)GlcNAc
# Summary of the method: as §1
binder,measurement,setting,value
"Dectin2 (Homo sapiens), Q6EIG7 (protein) MMQEQQPQSTEKRGWLSLRLWSVAGISIALLSACFIVSCVVTYHFTYGETGKRLSELHSYHSSLTCFSEGTKVPAWGCCPASWKSFGSSCYFISSEEKVWSKSEQNCVEMGAHLVVFNTEAEQNFIVQQLNESFSYFLGLSDPQGNNNWQWIDKTPYEKNVRFWHLGEPNHSAEQCASIVFWKPTGWGWNDVICETRRNSICEMNKIYL",glycan array binding signal (z-score),[1],-0.191
same,glycan array binding signal (z-score),[2],0.101
same,glycan array binding signal (z-score),[3],-0.147
same,glycan array binding signal (z-score),[4],-0.097
same,glycan array binding signal (z-score),[5],-0.198
same,glycan array binding signal (z-score),[6],-0.192
same,glycan array binding signal (z-score),[7],-0.146
same,glycan array binding signal (z-score),[8],-0.184
same,glycan array binding signal (z-score),[9],-0.15
same,glycan array binding signal (z-score),[10],-0.179
same,glycan array binding signal (z-score),Neu5Ac(a2-6)GalNAc,-0.176
same,glycan array binding signal (z-score),[11],-0.192
same,glycan array binding signal (z-score),[12],-0.186
same,glycan array binding signal (z-score),[13],-0.134
same,glycan array binding signal (z-score),[14],0.119
same,glycan array binding signal (z-score),Neu5Ac(a2-8)Neu5Ac,-0.183
same,glycan array binding signal (z-score),[15],-0.186
same,glycan array binding signal (z-score),[16],-0.116
same,glycan array binding signal (z-score),[17],-0.201
same,glycan array binding signal (z-score),[18],-0.21
same,glycan array binding signal (z-score),[19],-0.05
same,glycan array binding signal (z-score),[20],-0.177
same,glycan array binding signal (z-score),[21],-0.183
same,glycan array binding signal (z-score),[22],-0.199
same,glycan array binding signal (z-score),[23],-0.17
same,glycan array binding signal (z-score),[24],-0.133
same,glycan array binding signal (z-score),[25],-0.182
same,glycan array binding signal (z-score),[26],-0.21
same,glycan array binding signal (z-score),[27],-0.171
same,glycan array binding signal (z-score),Neu5Ac(b2-6)GalNAc,-0.206
same,glycan array binding signal (z-score),[28],-0.21
same,glycan array binding signal (z-score),[29],0.011
same,glycan array binding signal (z-score),[30],-0.14
same,glycan array binding signal (z-score),[31],-0.164
same,glycan array binding signal (z-score),[32],-0.04
same,glycan array binding signal (z-score),Neu5Gc(a2-3)Gal(b1-4)Glc,-0.147
same,glycan array binding signal (z-score),[33],-0.193
same,glycan array binding signal (z-score),[34],-0.102
same,glycan array binding signal (z-score),[35],-0.069
same,glycan array binding signal (z-score),[36],-0.154
same,glycan array binding signal (z-score),Neu5Gc(a2-6)GalNAc,-0.2
same,glycan array binding signal (z-score),[37],-0.194
same,glycan array binding signal (z-score),[38],-0.191
same,glycan array binding signal (z-score),[39],-0.206
same,glycan array binding signal (z-score),[40],-0.174
same,glycan array binding signal (z-score),[41],-0.162
